Values marked as one replicate rest on one cluster of the flow cell; about a third of the high ones do not repeat.
Tested on: ATP
Test: switch fluorescence ratio, 500 uM ATP over buffer (Cy3 cluster intensity, sum of 5 cycles each) (fold (ratio)); higher = stronger signal-on switching upon ATP binding; sequences stand for … in TCGTCGGCAGCGTCAGATGTGTATAAGAGACAGTTTTTTTTTTTTTTTTTTTTTTTTT…TC
Settings: aptamer strand: ATP DNA aptamer (quencher-CACCTGGGGGAGTATTGCGGAGGAAGG + anchor), 100 nM annealed; ATP concentration: 500 uM; one replicate
In short: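 For every switch-domain sequence, the fluorescence ratio is the mean of per-cluster values, each being summed target-cycle Cy3 intensity over summed buffer-cycle Cy3 intensity. Clusters outside 100-1000 RFU were excluded. On a modified Illumina MiSeq flow-cell, the Cy3-labelled switching-strand clusters were annealed to 100 nM quencher-labelled ATP aptamer, imaged in selection buffer and then after 15 min with 500 uM ATP at 22 °C. Five such cycles were run, with NaOH stripping and re-annealing between them.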
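Note: ATP exposure 15 min at 22 °C before imaging.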

Sequence: CCTACTCGC
- switch fluorescence ratio: 1.74

Sequence: CTAACTTAGC
- switch fluorescence ratio: 1.03

Sequence: GAATATGTTA
- switch fluorescence ratio: 0.99

Sequence: AGGACATGCT
- switch fluorescence ratio: 1.01

Sequence: TCCGATCTGT
- switch fluorescence ratio: 1.11

Sequence: GTCATAGCAG
- switch fluorescence ratio: 0.981

Sequence: CGGAGCCTC
- switch fluorescence ratio: 1.72

Sequence: CGTCGTACCT
- switch fluorescence ratio: 1.07

Sequence: AACGGGGTG
- switch fluorescence ratio: 0.995

Sequence: GGGCCGACTT
- switch fluorescence ratio: 1

Sequence: ATGTTTGTGG
- switch fluorescence ratio: 1.01

Sequence: GTCGCAGTTC
- switch fluorescence ratio: 1.17

Sequence: TGAGGCATCA
- switch fluorescence ratio: 1.04

Sequence: CATCATTTT
- switch fluorescence ratio: 0.978

Sequence: CTGCGGAGCG
- switch fluorescence ratio: 1.01

Sequence: GGGCGACATC
- switch fluorescence ratio: 1.17

Sequence: ACTGATTCAT
- switch fluorescence ratio: 0.966

Sequence: TAGTTAATCC
- switch fluorescence ratio: 1.04

Sequence: AACGGCTATC
- switch fluorescence ratio: 1.04

Sequence: AACGCCGCTG
- switch fluorescence ratio: 1.09

Sequence: TTTAGATTT
- switch fluorescence ratio: 0.972

Sequence: AATGTATAAG
- switch fluorescence ratio: 1.05

Sequence: CATAAACGTC
- switch fluorescence ratio: 1.02

Sequence: AGCCTGCTAA
- switch fluorescence ratio: 1

Sequence: TCTGGAGTTT
- switch fluorescence ratio: 0.996

Sequence: TACATTGTGT
- switch fluorescence ratio: 0.992

Sequence: GCCTCACAAC
- switch fluorescence ratio: 1.16

Sequence: CACTGTGTCT
- switch fluorescence ratio: 1.03

Sequence: ACCTGCACGG
- switch fluorescence ratio: 1.14

Sequence: AATTAGTGAC
- switch fluorescence ratio: 1.07

Sequence: TCCCTTAAAC
- switch fluorescence ratio: 1.92

Sequence: GCATCCGTTA
- switch fluorescence ratio: 1.46

Sequence: ACACGAGGTT
- switch fluorescence ratio: 0.994

Sequence: CCACACTGAA
- switch fluorescence ratio: 1.03

Sequence: TATACTCATG
- switch fluorescence ratio: 0.992

Sequence: CAATATGGTT
- switch fluorescence ratio: 1

Sequence: CTCTCACATC
- switch fluorescence ratio: 1.19

Sequence: TCCGTGCAGC
- switch fluorescence ratio: 2.93

Sequence: AGATCTCTCC
- switch fluorescence ratio: 1.07

Sequence: AGGACGTTT
- switch fluorescence ratio: 1.09

Sequence: TCCGGACAGG
- switch fluorescence ratio: 1.13

Sequence: CGAGAAGTCG
- switch fluorescence ratio: 0.977

Sequence: AGAACCCGGG
- switch fluorescence ratio: 0.988

Sequence: TTTTGTAGCC
- switch fluorescence ratio: 1.03

Sequence: TTCAATCAGG
- switch fluorescence ratio: 1.38

Sequence: GGTTGTCTAG
- switch fluorescence ratio: 0.969

Sequence: CCGAGAATTA
- switch fluorescence ratio: 1.29

Sequence: AAACCTTTAG
- switch fluorescence ratio: 1.03

Sequence: ATCCGTAGGG
- switch fluorescence ratio: 1

Sequence: AATCAACCGC
- switch fluorescence ratio: 1.14

Sequence: AACGATTCAA
- switch fluorescence ratio: 1.03

Sequence: GATTGGAAAC
- switch fluorescence ratio: 1.1

Sequence: CAGGATGGAC
- switch fluorescence ratio: 0.994

Sequence: TGGTCTAAGG
- switch fluorescence ratio: 0.991

Sequence: GCAGGGTCGT
- switch fluorescence ratio: 0.94

Sequence: TATTGAATTG
- switch fluorescence ratio: 0.994

Sequence: GCCTCAGCGT
- switch fluorescence ratio: 1.15

Sequence: AGCGCGTGGT
- switch fluorescence ratio: 0.99

Sequence: GAATGCGCCA
- switch fluorescence ratio: 0.969

Sequence: CAAGAAGATA
- switch fluorescence ratio: 0.962

Sequence: TGTCGGCGC
- switch fluorescence ratio: 1.01

Sequence: GAATTACTGA
- switch fluorescence ratio: 1.05

Sequence: TTGAAGCTCT
- switch fluorescence ratio: 0.99

Sequence: CCGGATGAGG
- switch fluorescence ratio: 0.987

Sequence: ATTTGGTCT
- switch fluorescence ratio: 0.993

Sequence: TGTTTAGTAG
- switch fluorescence ratio: 1.02

Sequence: GATGTAGTAA
- switch fluorescence ratio: 1.01

Sequence: TACATCGTCA
- switch fluorescence ratio: 0.981

Sequence: TTTGTCATGA
- switch fluorescence ratio: 1.03

Sequence: TTTCGCTTCT
- switch fluorescence ratio: 1.93

Sequence: GTGGGTCAGC
- switch fluorescence ratio: 1.02

Sequence: AAGTTATTCG
- switch fluorescence ratio: 0.997

Sequence: AGGTAGGAAA
- switch fluorescence ratio: 0.967

Sequence: GGGAGTGTTG
- switch fluorescence ratio: 0.952

Sequence: GAGGATTGGT
- switch fluorescence ratio: 1.01

Sequence: GACTAAACGA
- switch fluorescence ratio: 1.17

Sequence: CAATGCGCCC
- switch fluorescence ratio: 1.78

Sequence: GTCTAATTCG
- switch fluorescence ratio: 0.969

Sequence: ATTCCAGATG
- switch fluorescence ratio: 1.05

Sequence: GAGGCAGACG
- switch fluorescence ratio: 1.06

Sequence: CCAAGAGTTT
- switch fluorescence ratio: 1.02

Sequence: GGTTTTCCAA
- switch fluorescence ratio: 0.954

Sequence: CGCGGGTTCG
- switch fluorescence ratio: 1.04

Sequence: TGCCATCCGC
- switch fluorescence ratio: 1.4

Sequence: GCTCGTAAGG
- switch fluorescence ratio: 0.95

Sequence: AGCCACCC
- switch fluorescence ratio: 1.09

Sequence: ACCCGGTCGT
- switch fluorescence ratio: 1.03

Sequence: CACAACGCCA
- switch fluorescence ratio: 1.2

Sequence: GGAGTACATC
- switch fluorescence ratio: 1.02

Sequence: GGGTTATCC
- switch fluorescence ratio: 0.975

Sequence: GCGGGCGTGC
- switch fluorescence ratio: 1.01

Sequence: ATATGCTCTA
- switch fluorescence ratio: 1

Sequence: CCTGCGATAG
- switch fluorescence ratio: 4.75

Sequence: GGAACTGCTA
- switch fluorescence ratio: 1.06

Sequence: ACTGGGCTTA
- switch fluorescence ratio: 0.98

Sequence: TCTCTCGTG
- switch fluorescence ratio: 1.02

Sequence: TTGCGGTACA
- switch fluorescence ratio: 1.37

Sequence: GGTCAGCCGC
- switch fluorescence ratio: 1.01

Sequence: TTTTGTTCAA
- switch fluorescence ratio: 0.949

Sequence: TATGTAGG
- switch fluorescence ratio: 0.956

Sequence: CTACGCAGGG
- switch fluorescence ratio: 1.32

Sequence: GGCGTTATTT
- switch fluorescence ratio: 0.956

Sequence: GGGGCTGCG
- switch fluorescence ratio: 1

Sequence: CAGGGCCTCC
- switch fluorescence ratio: 1.01

Sequence: TTAGATTTCG
- switch fluorescence ratio: 1.07

Sequence: GATCTCTGGG
- switch fluorescence ratio: 0.985

Sequence: TTTTACAGAC
- switch fluorescence ratio: 1.06

Sequence: ACATTGCGAT
- switch fluorescence ratio: 0.999

Sequence: AGGGAAACAC
- switch fluorescence ratio: 1.03

Sequence: TATGGCTTAC
- switch fluorescence ratio: 1.28

Sequence: CCCCTAGGCT
- switch fluorescence ratio: 1.42

Sequence: AGAAATTCGG
- switch fluorescence ratio: 0.998

Sequence: CCTTAAAT
- switch fluorescence ratio: 1.02

Sequence: ACTGATTATG
- switch fluorescence ratio: 0.987

Sequence: GAAAAAGTGT
- switch fluorescence ratio: 0.992

Sequence: CACCCTAACG
- switch fluorescence ratio: 1.18

Sequence: TAATAAACGT
- switch fluorescence ratio: 1.05

Sequence: AAGCGGACGT
- switch fluorescence ratio: 0.99

Sequence: AAACTAGATA
- switch fluorescence ratio: 0.996

Sequence: AATACTAAGT
- switch fluorescence ratio: 0.972

Sequence: TCAACGTCTA
- switch fluorescence ratio: 1.07

Sequence: ACAAAATCGC
- switch fluorescence ratio: 1.07

Sequence: AATGGCTTGT
- switch fluorescence ratio: 0.953

Sequence: CCGTTAGTAT
- switch fluorescence ratio: 1.13

Sequence: CCGATAAAAT
- switch fluorescence ratio: 1.37

Sequence: TATAAGATC
- switch fluorescence ratio: 0.954

Sequence: AACTGTCGGA
- switch fluorescence ratio: 0.985

Sequence: GGCCGGGTAT
- switch fluorescence ratio: 0.981

Sequence: TGGAGTGGAA
- switch fluorescence ratio: 0.982

Sequence: CCACACAGGA
- switch fluorescence ratio: 1.05

Sequence: AATCTTGTCT
- switch fluorescence ratio: 0.953

Sequence: AGAGGAATGG
- switch fluorescence ratio: 1.07

Sequence: AGCAAGAGGG
- switch fluorescence ratio: 1.09

Sequence: ACAAAAAAG
- switch fluorescence ratio: 1.07

Sequence: ATAATTTTCG
- switch fluorescence ratio: 1.08

Sequence: TTGTGTGATG
- switch fluorescence ratio: 0.967

Sequence: GGGATCTTCT
- switch fluorescence ratio: 0.977

Sequence: CTTGGGACAA
- switch fluorescence ratio: 0.987

Sequence: GAATGCCAGC
- switch fluorescence ratio: 1.03

Sequence: AGTGGGGTCT
- switch fluorescence ratio: 1

Sequence: ATGCTGTCGG
- switch fluorescence ratio: 0.994

Sequence: CCACGTCCGC
- switch fluorescence ratio: 1.63

Sequence: GGGACTATGC
- switch fluorescence ratio: 1

Sequence: ACCTATGATA
- switch fluorescence ratio: 1.04

Sequence: CCAAGCTTTA
- switch fluorescence ratio: 1.29

Sequence: GGTGAACTGA
- switch fluorescence ratio: 1.01

Sequence: CTTGTTCGAT
- switch fluorescence ratio: 0.949

Sequence: AGAGCGCATA
- switch fluorescence ratio: 1.16

Sequence: AGAAACATCT
- switch fluorescence ratio: 0.999

Sequence: TAAAGATGGG
- switch fluorescence ratio: 0.974

Sequence: CGTCGCAGGT
- switch fluorescence ratio: 1.12

Sequence: GTTAAGGGA
- switch fluorescence ratio: 0.992

Sequence: TCGGAGATAA
- switch fluorescence ratio: 1.03

Sequence: GTATTTACCA
- switch fluorescence ratio: 1.04

Sequence: ATTAGAACTT
- switch fluorescence ratio: 1.08

Sequence: TGATCGTAGC
- switch fluorescence ratio: 1.03

Sequence: CGTTCAGAGA
- switch fluorescence ratio: 0.984
